From the supplement of paper PMC10126150
Sequences with one replicate were seen in a single cluster, so their values are uncertain.

What follows are sequences tested on ATP (assay: switch fluorescence ratio, 500 uM ATP over buffer (Cy3 cluster intensity, sum of 5 cycles each) (fold (ratio)); higher = stronger signal-on switching upon ATP binding; sequences stand for … in TCGTCGGCAGCGTCAGATGTGTATAAGAGACAGTTTTTTTTTTTTTTTTTTTTTTTTT…TC). Settings: aptamer strand: ATP DNA aptamer (quencher-CACCTGGGGGAGTATTGCGGAGGAAGG + anchor), 100 nM annealed; ATP concentration: 500 uM; one replicate.
Method in brief: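 Clusters carrying Cy3-labelled switching strands on a modified Illumina MiSeq flow-cell were annealed to 100 nM quencher-labelled ATP aptamer and imaged in selection buffer. They were imaged again after 15 min with 500 uM ATP at 22 °C, over five buffer/ATP cycles with NaOH stripping and re-annealing in between. For each cluster, the fluorescence ratio is the summed Cy3 intensity of the target cycles divided by that of the buffer cycles, averaged per switch-domain sequence. Clusters outside 100-1000 RFU were left out.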
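Further: ATP exposure 15 min at 22 °C before imaging.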

Sequence | switch fluorescence ratio
GCAAGACAAC | 1.67
GCAAGACTGT | 2.74
GCAAGAGTGT | 1.02
GCAAGATGCC | 1.1
GCAAGATGGT | 1.02
GCAAGCGGTT | 1.01
GCAAGCTGAT | 1.03
GCAAGGACGT | 1.03
GCAAGGCCTT | 0.991
GCAAGGGGTA | 1.03
GCAAGTAGAT | 0.986
GCAAGTGCCC | 1.07
GCAAGTTGAG | 1.01
GCAATAAAGA | 3.42
GCAATCGAAT | 1.08
GCAATGTTGC | 1
GCAATTCGCA | 1.07
GCAATTGGAT | 0.977
GCAATTGTAA | 0.961
GCACAAGGCT | 1.06
GCACAATCCG | 1.11
GCACACGTTT | 1.01
GCACAGGGGG | 1.04
GCACATTGT | 1.09
GCACCAACGT | 1.41

Sequence | switch fluorescence ratio
GCACCACGTT | 1.04
GCACCAGGTT | 2.45
GCACCGCGTC | 1.39
GCACCTGT | 1.01
GCACCTGTTG | 1.04
GCACGACGG | 1.08
GCACGAGTTC | 1.02
GCACGATCTA | 1.02
GCACGCACCA | 1.44
GCACGCAGAT | 1.15
GCACGCCTCG | 1.04
GCACGGAAGA | 1.12
GCACGGCGGT | 1.02
GCACGGGAAA | 0.985
GCACGGGCTG | 1.07
GCACGGTGC | 1.04
GCACGTAGGT | 1.27
GCACTAAACA | 1.06
GCACTATGGG | 0.981
GCACTCCGCG | 4.25
GCACTGAAAC | 1.33
GCACTGGCTT | 1.05
GCACTTTAGA | 1.01
GCAGAAGGTG | 1.53
GCAGACGCGC | 1.05

Sequence | switch fluorescence ratio
GCAGACTACC | 1.92
GCAGACTTGG | 0.975
GCAGAGGCTC | 1.02
GCAGATAGAA | 0.992
GCAGATCGAG | 1.04
GCAGATGCGC | 1.02
GCAGCCGGCG | 0.991
GCAGCGTCTG | 0.996
GCAGCTAAGT | 1.1
GCAGGATA | 0.949
GCAGGATTCT | 0.991
GCAGGCAAG | 1.06
GCAGGCTTC | 1.05
GCAGGGATTC | 1.02
GCAGGTAGGT | 1.01
GCAGGTATCC | 1.05
GCAGGTGAGT | 1.49
GCAGTAGAAG | 1.01
GCAGTCAGGA | 0.941
GCAGTCGGCC | 1.01
GCAGTCGTCC | 1.05
GCAGTGAATG | 0.995
GCAGTGAGGA | 1.01
GCAGTGGCGC | 1.02
GCAGTGTACT | 1.12

Sequence | switch fluorescence ratio
GCAGTTGACC | 1.08
GCAGTTTAAG | 0.99
GCAGTTTACG | 0.986
GCATAAAAGC | 0.997
GCATAAACAG | 1.03
GCATAAACCA | 1.03
GCATAGGAAT | 0.994
GCATAGGTCT | 0.998
GCATAGTTAC | 1.14
GCATATGGCA | 1.03
GCATCTCATT | 1
GCATCTGAGT | 0.998
GCATGACGGT | 0.996
GCATGAGAAC | 0.967
GCATGCGGTT | 0.999
GCATGCTCTG | 0.976
GCATGGCTAC | 1.04
GCATGGCTCA | 1.02
GCATGTACTG | 1.05
GCATTAAAGA | 1.06
GCATTACGTT | 1.26
GCATTACTAA | 1.27
GCATTAGGCG | 1.03
GCATTATCGA | 1.02
GCATTATCGG | 0.999
